# In PMC10668032:
# The list shows a part of the results. At the low end of the ranking, values are background and their order means little.
# Molecular target: SIX1 homeodomain (reference allele) (UniProt Q15475)
# Assay: universal protein binding microarray
# Details: Universal all-10-mer PBM (8x60K, AMADID 030236), 300 nM GST-tagged protein, Alexa Fluor 488 anti-GST; buffer, salt, pH and temperature not stated; high values mean tight binding; most listed sequences are background and not binding sites; double strand, one strand shown
row,Sequence,binding signal [E-score]
1,CATGATAG,0.274
2,ACCAGCCA,-0.0605
3,CTACACAA,-0.197
4,AAGGCCGG,-0.104
5,CTACAACA,-0.0886
6,GAGCGGGC,-0.169
7,AGTCCAAG,-0.133
8,ATCTGATC,0.419
9,TGAGGGAA,-0.193
10,CTTTCGTA,-0.229
11,AGGAAAAC,-0.0959
12,GCCCGCGA,-0.0488
13,ATAATGTG,-0.0933
14,AAGAGCGC,-0.191
15,AAGCGGGT,-0.00587
16,AAGGGATC,0.377
17,GAGTATCC,0.42
18,GTGTACAA,0.0474
19,GGTGCCTA,-0.19
20,CGCTTCAA,-0.182
21,GACCAACC,-0.0541
22,CACATGCG,0.0348
23,CAGGCGAC,-0.0942
24,TAGATGAA,0.00359
25,CGATACAC,0.418

row,Sequence,binding signal [E-score]
1,ACATAGTC,-0.206
2,TCATAGAA,-0.0333
3,AATGCATA,0.0553
4,TGCCACCA,-0.0962
5,ATCTTGCG,0.0553
6,GCCGACGC,-0.0249
7,ACAGGTTA,-0.16
8,CTCCTAGC,-0.0797
9,ATTTTAAG,-0.135
10,AACATGTC,-0.102
11,ATATCAAG,0.423
12,GCGAACAC,0.0862
13,ACAAGTAA,-0.2
14,TCAAGACA,-0.172
15,CACGGGGG,0.105
16,ATCGCCGC,0.0347
17,GACCATAC,0.0313
18,GAAATGCC,-0.155
19,ACGAATGC,-0.16
20,ATCACTTC,0.3
21,TGCCGCAA,0.0355
22,ACAACTGA,-0.0481
23,AGTTACGC,-0.293
24,AAGAACGT,-0.191
25,CAACAAAA,-0.0775

row,Sequence,binding signal [E-score]
1,AGGCAAAC,-0.167
2,AAGCCTCC,-0.289
3,GTGAAGTA,-0.0788
4,CAGCACTG,-0.214
5,GCGCATGA,-0.0245
6,AGCTTTCA,-0.143
7,ACTCATCC,0.0911
8,AGGACTGC,-0.301
9,CGGTACTA,-0.03
10,CACTATGA,-0.0678
11,GGACGACA,-0.0703
12,TGAGACCA,0.169
13,ACCACCGC,-0.0428
14,AAACAATA,0.0376
15,GTCTCGGA,0.154
16,ATAAACGG,0.0776
17,AACTCCCC,-0.0534
18,CTGTAATA,0.0701
19,CATTAAGG,0.00831
20,ATCCATGG,0.167
21,TATTCACA,0.166
22,GCAAACGA,0.0108
23,CTTTAATC,0.0475
24,CGCGCTGA,0.0317
25,AATAACAT,0.00793

row,Sequence,binding signal [E-score]
1,AATATCGG,0.312
2,CCTGGAAG,-0.116
3,GGAGTATA,0.319
4,AGGCAAAG,-0.229
5,GTGGAGGA,0.119
6,GCGTACTA,-0.116
7,CGCCACTA,-0.0453
8,ATGGTCCA,-0.106
9,CAACTATA,-0.00948
10,CCCTTTTA,-0.125
11,CGATTCCA,-0.00511
12,CTCGTCCC,-0.171
13,ACTTGCGG,-0.134
14,ACGACAGA,0.00908
15,AATGCGCA,0.0354
16,GACGTGGA,-0.122
17,AAATTAGC,-0.157
18,ATGATCTC,0.327
19,TGTCTAAA,0.107
20,TATGGCAA,-0.143
21,CAAAGCGC,-0.192
22,AAGGGACT,-0.234
23,ACTCTAGA,0.203
24,CCTCCCCG,0.0183
25,ATTCTATG,-0.0456

row,Sequence,binding signal [E-score]
1,AGGACTAA,-0.0521
2,GATATGGC,0.418
3,CGCTACCC,0.0566
4,ACCTCATC,0.0359
5,GACGCGAA,-0.0761
6,AGAGCAAT,0.0285
7,AATCTGAG,0.112
8,CGTTACAA,-0.144
9,ACGTAGGC,-0.147
10,GAGGGGTA,0.257
11,ACCAGTCT,-0.00903
12,CCCTAGTC,-0.153
13,CACTCTAG,0.0543
14,ACTTCCCG,0.0099
15,CCGATGGC,-0.0673
16,ATTCCGAC,-0.00675
17,AACCCCTT,0.0305
18,ATAGTAAA,-0.033
19,GCGGATCA,0.448
20,GGGTAAGA,0.032
21,AAAACGGT,-0.109
22,TACTGGGA,0.0604
23,ACGGGCGG,-0.056
24,AAGCACAG,-0.15
25,ACCAATTG,-0.0361

row,Sequence,binding signal [E-score]
1,CAAGAACG,0.0292
2,GGTATCCA,0.464
3,GCTAGTCA,-0.151
4,ATAAAGGA,0.0157
5,AGCCTAAC,-0.149
6,AGATGCCG,0.0882
7,ATCTAAAG,0.0517
8,ATATCTGG,0.298
9,ACGGTTTA,0.146
10,CTACTTAC,-0.0461
11,CCCACAAG,0.0193
12,AACCGCAA,-0.082
13,ACAGGAGT,-0.0647
14,GCGGCGCA,-0.111
15,AAGCAGGT,-0.128
16,ATCCTTGA,0.192
17,GAGCAATA,0.151
18,GCTTCACA,-0.149
19,GATTAGCC,0.0282
20,CGGGCCTC,-0.154
21,CTCACCAC,-0.131
22,AAGCGAAT,-0.0579
23,AGTCTACG,-0.038
24,GCAGGCAA,0.0408
25,AGATCTCC,0.184

row,Sequence,binding signal [E-score]
1,CTGCAAAA,-0.127
2,GCCGACTA,-0.201
3,GGAGACAC,0.219
4,AGACCCCA,0.118
5,ATCTCGCG,0.257
6,TTAAAGAA,-0.171
7,ACGGCTGG,-0.0748
8,ATTCAATC,0.0984
9,CCTCGTGA,0.0568
10,CATAACAC,0.161
11,TCGAGACA,0.0221
12,GGGGTCAC,0.111
13,ACTAGAGC,-0.101
14,ACACCAGC,0.211
15,AAGCCTTA,-0.178
16,ATCGGTGA,0.232
17,CTGCGAGC,-0.0471
18,TATATCAA,0.361
19,GAACAGAA,-0.226
20,AATGCCCC,-0.0279
21,ACTTTCCG,-0.28
22,CGTATGAC,0.0448
